Test results: PubChem BioAssay (NCATS)
This list was built around the results that the source calls inconclusive (neither active nor inactive); the mix of calls is not that of the screen. For some of these results: No potency is given beside an inconclusive call; the fits are too rough. Active and inactive are the calls of the source. Unless noted, the call rests on the fitted dose curve; in most records, active means well fitted curve in the direction sought with a large enough effect; inconclusive means small, poorly fitted or top-dose-only effect, or another doubt; inactive means no such curve, though single readings can be large; an effect the other way counts as inactive or inconclusive.

How the values were obtained:
[1] = tested on: Zika virus NS2B-NS3 protease (linked construct); assay: Primary screen NINDS Rhodamine qHTS for Zika virus inhibitors (AID 1347160); further: potency means the concentration at half of the fitted maximal effect; nearly all actives have a fitted effect of over 55% in size
How it was run: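 Rhodamine110-peptide cleavage (1.5 µM substrate) by 25 nM linked NS2B-NS3 enzyme at pH 8.0 (Tris, Tween 20), after 15 min RT preincubation with compounds; 15-min fluorescence change normalized to controls and Hill-fitted.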

[2] = SW1088 Cancer Cell Toxicity qHTS against the NCATS CANVASS Library (AID 1347350); further: nearly all actives have a fitted effect of over 75% in size
How it was run: (§1)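 Cells were seeded at 1000 per well, allowed 4 h at 37 degrees C/5% CO2, then pin-treated with an 11-point compound series. After 72 h, viability was read as CellTiter-Glo luminescence following 15min at room temperature.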

[3] = A2780 Cisplatin Sensitive Ovarian Cancer Cell Toxicity qHTS against the NCATS CANVASS Library (AID 1347353); further: potency means the concentration at half of the fitted maximal effect; nearly all actives have a fitted effect of over 60% in size
How it was run: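 Cisplatin-sensitive A2780 ovarian cells (750/well) received compound in 11 concentrations, and were incubated 72 h at 37 °C. ATP content was measured by ATPLite luminescence; bortezomib served as control.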

[4] = HEK-293 Cancer Cell Toxicity qHTS against the NCATS CANVASS Library (AID 1347355); further: potency means the concentration at half of the fitted maximal effect; nearly all actives have a fitted effect of over 65% in size
How it was run: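 Toxicity was measured as CellTiter-Glo luminescence after 72 h exposure to an 11-point compound series. Compound was added to 1000 cells/well 4 h after seeding.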

[5] = target: Luciferin 4-monooxygenase (Photinus pyralis) (UniProt P08659); assay: Firefly luciferase counterscreen qHTS: Assay Interference Panel against the NCATS CANVASS Library (AID 1347363); further: potency means the concentration at half of the fitted maximal effect
UniProt P08659, sequence (P08659 whole entry, looked up): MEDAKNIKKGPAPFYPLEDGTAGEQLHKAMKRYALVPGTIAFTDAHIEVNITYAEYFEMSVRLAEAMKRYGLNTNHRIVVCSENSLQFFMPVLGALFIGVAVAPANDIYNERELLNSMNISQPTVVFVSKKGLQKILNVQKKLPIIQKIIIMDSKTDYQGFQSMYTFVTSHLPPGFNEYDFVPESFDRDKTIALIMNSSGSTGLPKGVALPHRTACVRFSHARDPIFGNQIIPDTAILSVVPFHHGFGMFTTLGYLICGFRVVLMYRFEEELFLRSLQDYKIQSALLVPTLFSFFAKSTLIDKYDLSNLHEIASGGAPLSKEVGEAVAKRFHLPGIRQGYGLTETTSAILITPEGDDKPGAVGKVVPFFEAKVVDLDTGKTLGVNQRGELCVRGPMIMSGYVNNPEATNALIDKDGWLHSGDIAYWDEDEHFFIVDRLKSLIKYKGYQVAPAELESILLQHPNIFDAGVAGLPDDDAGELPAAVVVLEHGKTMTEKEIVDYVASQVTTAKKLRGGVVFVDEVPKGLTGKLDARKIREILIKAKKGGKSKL
How it was run: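 Purified P. pyralis luciferase was added to compounds (11-point series) preincubated 15 min at room temperature with substrate containing 0.013 mM D-luciferin and 0.013 mM ATP; luminescence was read after 5 min.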

[6] = KB-8-5-11 Cancer Cell Toxicity qHTS against the NCATS CANVASS Library (AID 1347364); settings: activity change, negative = toxicity: at 46.1 µM (top of the series); further: nearly all actives have a fitted effect of over 75% in size; further: potency means the concentration at half of the fitted maximal effect
How it was run: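 Viability read as CellTiter-Glo luminescence after 72 h at 37 °C, 5% CO2. 11-point compound series on 500 KB-8-5-11 cells/well in DMEM/10% FBS. Follow-up plating included 1 uM tariquidar in the medium.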

[7] = G06 Cancer Cell Toxicity qHTS against the NCATS CANVASS Library (AID 1347368); further: nearly all actives have a fitted effect of over 60% in size; further: potency means the concentration at half of the fitted maximal effect
How it was run: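 Viability measured by CellTiterGlo ATP luminescence after 72 hr at 37C, 5% CO2. Canine G06 glioma cells plated at 500/well. Compounds tested as 11-point qHTS titrations.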

[8] = J3T Cancer Cell Toxicity qHTS against the NCATS CANVASS Library (AID 1347371);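 further: J3T is a canine glioma cancer cell line seeded at 500 cells per well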
How it was run: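 Cytotoxicity read as CellTiterGlo ATP luminescence after 72 h incubation (37C, 5% CO2) of J3T canine glioma cells (500/well) with an 11-point compound series.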

[9] = target: Nuclear receptor subfamily 1 group I member 3 (Homo sapiens) (UniProt Q14994); assay: qHTS for Constitutive Androstane Receptor (CAR) Antagonist screened against the NCATS CANVASS Library (AID 1347372); further: potency means the concentration at half of the fitted maximal effect
UniProt Q14994, sequence (Q14994 whole entry, looked up): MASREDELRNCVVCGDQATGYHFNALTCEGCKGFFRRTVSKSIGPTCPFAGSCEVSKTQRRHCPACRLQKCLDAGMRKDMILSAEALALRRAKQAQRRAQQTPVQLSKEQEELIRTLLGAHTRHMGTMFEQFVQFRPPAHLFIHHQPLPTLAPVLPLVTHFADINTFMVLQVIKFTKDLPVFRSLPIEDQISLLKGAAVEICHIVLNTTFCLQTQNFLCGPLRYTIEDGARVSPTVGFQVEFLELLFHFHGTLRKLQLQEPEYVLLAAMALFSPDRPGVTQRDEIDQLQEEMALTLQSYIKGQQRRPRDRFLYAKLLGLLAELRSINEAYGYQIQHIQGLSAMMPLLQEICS
How it was run: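 Cells were seeded and left 4hr to attach, then received compound at 11 concentrations and 50 nM CITCO. Following 24hr incubation, fluorescence viability and luciferase luminescence were read sequentially.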

[10] = qHTS for Hypoxia signaling pathway (HIF-1) antagonists against the NCATS CANVASS Library (AID 1347374);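 further: HRE-bla ME-180 cells stimulated with cobalt chloride to stabilize HIF-1alpha; nearly all actives have a fitted effect of over 60% in size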
How it was run: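 Antagonism scored as loss of CoCl2-driven (60 uM stock added) HRE beta-lactamase signal, read by CCF4 FRET at 460/530 nm. Compounds were tested in an 11-point series on ME-180 reporter cells for 17 hrs at 37C, with parallel CellTiter-Glo cytotoxicity.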

[11] = qHTS for activators of Nrf2/ARE signaling pathway screened against the NCATS CANVASS Library (AID 1347391); further: nearly all actives have a fitted effect of over 60% in size; further: potency means the concentration at half of the fitted maximal effect
How it was run: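 Eleven-point qHTS, 16 h treatment of HepG2 cells carrying an ARE-driven beta-lactamase reporter; CCF4 ratio read (405 nm excitation, 460 and 530 nm emission), with CellTiter-Glo ATP luminescence for viability.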

[12] = target: Cytochrome P450 2D6 (Homo sapiens) (UniProt P10635); assay: Cytochrome P450 family 2 subfamily D member 6 (CYP2D6) small molecule antagonists: luciferase biochemical (cell-free) qHTS assay (AID 1645840; active means well fitted curve in the direction sought with a large enough effect in the repeat runs; inconclusive means weak or mixed curves; inactive means no such curve, though single readings can be large; an effect the other way counts as inactive or inconclusive; further: potency means the concentration at half of the fitted maximal effect; nearly all actives have a fitted effect of over 55% in size)
UniProt P10635, sequence (P10635 whole entry, looked up): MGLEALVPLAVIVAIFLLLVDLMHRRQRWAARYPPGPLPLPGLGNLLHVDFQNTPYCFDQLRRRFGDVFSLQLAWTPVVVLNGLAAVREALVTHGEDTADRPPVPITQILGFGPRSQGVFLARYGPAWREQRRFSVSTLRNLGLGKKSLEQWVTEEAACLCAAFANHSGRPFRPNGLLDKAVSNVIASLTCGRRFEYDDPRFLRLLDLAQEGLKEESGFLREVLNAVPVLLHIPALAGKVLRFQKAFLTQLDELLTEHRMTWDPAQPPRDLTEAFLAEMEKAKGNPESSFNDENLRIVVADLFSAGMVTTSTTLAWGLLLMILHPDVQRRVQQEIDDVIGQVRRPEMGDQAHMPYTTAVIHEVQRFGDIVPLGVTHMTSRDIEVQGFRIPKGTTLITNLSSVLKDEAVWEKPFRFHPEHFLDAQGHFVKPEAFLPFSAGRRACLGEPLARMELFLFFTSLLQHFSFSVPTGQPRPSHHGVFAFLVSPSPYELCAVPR
How it was run: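 P450-Glo CYP2D6 system: proluciferin substrate converted by enzyme to luciferin, read by luminescence proportional to activity. Enzyme-substrate mix with compound 10 min at room temperature, then NADPH regeneration 1 h before detection reagent.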

[13] = target: Cytochrome P450 2C9 (Homo sapiens) (UniProt P11712); assay: Cytochrome P450 family 2 subfamily C member 9 (CYP2C9) small molecule antagonists: luciferase biochemical (cell-free) qHTS assay (AID 1645842; active means well fitted curve in the direction sought with a large enough effect in the repeat runs; inconclusive means weak or mixed curves; inactive means no such curve, though single readings can be large; an effect the other way counts as inactive or inconclusive; further: potency means the concentration at half of the fitted maximal effect; nearly all actives have a fitted effect of over 55% in size)
UniProt P11712, sequence (P11712 whole entry, looked up): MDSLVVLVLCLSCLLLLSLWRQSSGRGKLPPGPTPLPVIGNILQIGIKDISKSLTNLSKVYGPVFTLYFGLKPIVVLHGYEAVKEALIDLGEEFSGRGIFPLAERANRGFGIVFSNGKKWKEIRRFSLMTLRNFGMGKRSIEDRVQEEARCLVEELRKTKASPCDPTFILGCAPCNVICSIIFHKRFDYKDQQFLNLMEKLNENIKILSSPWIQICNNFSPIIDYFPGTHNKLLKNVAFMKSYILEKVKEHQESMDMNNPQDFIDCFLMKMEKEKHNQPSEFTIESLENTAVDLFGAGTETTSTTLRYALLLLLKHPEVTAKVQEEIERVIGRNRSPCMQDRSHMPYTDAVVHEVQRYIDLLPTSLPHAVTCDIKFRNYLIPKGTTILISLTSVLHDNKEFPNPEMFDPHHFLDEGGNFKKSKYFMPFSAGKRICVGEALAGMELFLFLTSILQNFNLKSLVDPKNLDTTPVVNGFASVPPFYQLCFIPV
How it was run: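 P450-Glo CYP2C9 system: proluciferin substrate with enzyme in mix containing 0.4% BSA, 10 min at room temperature, then NADPH regeneration solution added and incubated 1 h at 37C. Detection reagent stopped reaction; luminescence read after 20 min as RLU.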

[14] = target: Glutathione peroxidase 1 (Homo sapiens) (UniProt P07203); assay: Primary qHTS Assay for Inhibitors of Recombinant Selenoprotein Glutathione Peroxidase 1 (GPX1) (AID 1845191); further: potency means the concentration at half of the fitted maximal effect; nearly all actives have a fitted effect of over 65% in size
UniProt P07203, sequence (P07203 whole entry, looked up): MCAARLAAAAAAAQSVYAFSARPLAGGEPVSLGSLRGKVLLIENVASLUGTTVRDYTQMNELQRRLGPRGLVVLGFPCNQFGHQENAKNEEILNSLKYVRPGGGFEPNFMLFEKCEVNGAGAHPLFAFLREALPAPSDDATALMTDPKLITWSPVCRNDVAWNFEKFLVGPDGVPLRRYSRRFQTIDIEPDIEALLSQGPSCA
How it was run: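 GPX1 10 nM, GR 100 nM, GSH 1 mM, NADPH 0.5 mM, CHP 0.5 mM (final). 30-min cpd preincubation, RT. Ex340/Em450 read t=0, t=15 min.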

[15] = tested on: Nanoluciferase (engineered Oplophorus gracilirostris luciferase); assay: Primary Nanoluciferase (NLuc) qHTS assay for identification of artifact compounds. (AID 1845222); settings: NLuc-conditioned medium, Nano-Glo luminescence, 5 min;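 further: NLuc secreted into diluted conditioned medium of S16 cells; potency means the concentration at half of the fitted maximal effect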
How it was run: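 Using secreted nanoluciferase in S16 culture medium (0.22 um filtered, 1:55 dilution), compounds were preincubated 15 min at RT. Signal was generated with Nano-Glo reagent (1:100) over 5 min.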

[16] = Panc-1005 Cancer Cell Toxicity qHTS against the NCATS CANVASS Library (AID 1347349); further: nearly all actives have a fitted effect of over 60% in size
How it was run: as §1

[17] = U-118MG Cancer Cell Toxicity qHTS against the NCATS CANVASS Library (AID 1347351)
How it was run: as §1

[18] = qHTS for inhibitors of ER calcium dysfunction: SERCaMP assay screened against the NCATS CANVASS Library (AID 1347393); settings: SH-SY5Y GLuc-SERCaMP (Gaussia luciferase released on ER calcium loss) secretion, thapsigargin, luminescence; activity change, negative = inhibition: at 76.6 µM (top of the series) unless noted; further: potency means the concentration at half of the fitted maximal effect; nearly all actives have a fitted effect of over 40% in size
How it was run: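 qHTS in SH-SY5Y reporter cells: 16 h compound pretreatment, 4 h thapsigargin, then secreted Gaussia luciferase measured by luminescence.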

[19] = Vero-766 cells viability qHTS against the NCATS CANVASS Library: Counterscreen for Zika virus inhibition assay (AID 1347394); settings: Vero 766 viability, CellTiter-Glo luminescence, 72 h; activity change, negative = cytotoxic: at 46.1 µM (top of the series); further: nearly all actives have a fitted effect of over 60% in size
How it was run: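 Vero 766 cells (1000/well), without Zika virus, were exposed to compounds for 72 h at 37C. Viability was measured by CellTiter Glo luminescence. Media-only wells served as 100% inhibition.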

[20] = qHTS for inhibitors of Wild type Zika virus screened against the NCATS CANVASS Library (AID 1347396);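 further: ATP luminescence of surviving cells so rescue from viral cell killing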
How it was run: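 Luminescent CellTiter Glo read-out of virus-induced cytotoxicity, 72 h post-infection, in Vero 766 cells. Compounds were tested at 11 concentrations; uninfected, vehicle-treated wells defined 100% inhibition.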

[21] = MCF7 Cancer Cell Toxicity qHTS against the NCATS CANVASS Library (AID 1347369); settings: activity change, negative = cytotoxicity: at 46 µM (top of the series)
How it was run: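 MCF7 cells (500/well) were exposed 72 h at 37 °C to compounds in an 11-point series. Viability was read as ATP content by CellTiterGlo luminescence.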

[22] = qHTS for Antimalaria activity screened against the NCATS CANVASS Library (AID 1347380); further: nearly all actives have a fitted effect of over 40% in size; further: potency means the concentration at half of the fitted maximal effect;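 on activity change, negative = inhibition: Plasmodium falciparum strain Dd2 asexual parasites grown in red blood cells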
How it was run: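 SYBR Green fluorescence at 485/535 nm was read 18 hr after lysis. This followed a 72 hr incubation at 37C in 5% O2, 5% CO2 of Dd2-infected erythrocytes (0.3% parasitemia, 2.5% final hematocrit) with compounds titrated over 11 concentrations.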

[23] = qHTS for Hypoxia signaling pathway (HIF-1) agonists against the NCATS CANVASS Library (AID 1347375)
How it was run: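 Beta-lactamase reporter under HRE control in ME-180 cells; compounds (11-point qHTS series) added after 5 hrs plating, then 17 hrs at 37C. FRET substrate read after 2 hr; same-well CellTiter-Glo luminescence gave viability and normalization.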

[24] = 10-beta competent E. coli microbial cell viability qHTS against the NCATS CANVASS Library (AID 1347376); further: potency means the concentration at half of the fitted maximal effect
How it was run: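 Read-out: BacTiter-Glo ATP luminescence, taken 20 min after reagent addition. Beforehand, 10-beta competent E. coli at 0.2 OD had been incubated overnight at 37C with compounds at 11 concentrations.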

[25] = Secretion counterscreen for inhibitors of the SERCaMP assay screened against the NCATS CANVASS Library (AID 1347390); settings: SH-SY5Y constitutive GLuc secretion, luminescence, 20 h; activity change, negative = inhibition: at 76.6 µM (top of the series)
How it was run: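 SH-SY5Y cells with constitutively secreted GLuc reporter, 1000 cells/well, treated 20 h at 37C with compounds at 0.001 - 77 uM final; secreted luciferase read as luminescence after coelenterazine; Brefeldin A as positive control.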
Tags describe the fitted curve by direction and shape.

**Q.** With `C=C[C@]1(C)CC[C@@H]([C@H](C)C(=O)OCC)O1` as the compound, how does the Potency [1] read?
**A.** active: 27.2 µM

**Q.** And the Potency [2]?
**A.** inactive

**Q.** What about the Potency [3] of the same compound?
**A.** inconclusive [cytotoxic, single point]

**Q.** What about the Potency [4] of the same compound?
**A.** inconclusive [cytotoxic, single point]

**Q.** And the Potency [5]?
**A.** inconclusive [inhibitor, partial curve]

**Q.** And the Potency [6]?
**A.** inconclusive [cytotoxic, single point]

**Q.** And the Potency [7]?
**A.** inconclusive [cytotoxic, single point]

**Q.** And the Potency [8]?
**A.** inactive

**Q.** And the Potency [9]?
**A.** inconclusive [inhibitor, full curve]

**Q.** And the Potency [10]?
**A.** inactive

**Q.** What about the Potency [11] of the same compound?
**A.** inconclusive [activator, single point]

**Q.** What does the source list for `Cc1sc(C)c(C(=O)NC2(c3ccc(C(=O)O)cc3)CC2)c1Cc1ccc(C(F)(F)F)cc1`?
**A.** Potency [1]: inconclusive [inhibitor, partial curve]; Potency [12]: inconclusive [inhibitor, single point]; Potency [13]: inconclusive [inhibitor, single point]; Potency [14]: inconclusive [inhibitor, single point]; Potency [15]: active: 4.78 µM

**Q.** For `C=C[C@]1(C)CC[C@@H]([C@H](C)C(=O)CC=C(C)C)O1`, which Potency [1] is on record?
**A.** inconclusive [inhibitor, partial curve, poor fit]

**Q.** And the Potency [16]?
**A.** inactive

**Q.** And the Potency [17]?
**A.** inactive

**Q.** And the Potency [7]?
**A.** inactive

**Q.** What about the Potency [18] of the same compound?
**A.** inconclusive [inhibitor, single point]

**Q.** What about the Potency [19] of the same compound?
**A.** inactive

**Q.** And the Potency [20]?
**A.** inactive

**Q.** For `CC(=O)c1c(C)cc2c(c1O)C(=O)c1c(O)cc(O)cc1C2=O`, which Potency [1] is on record?
**A.** inconclusive [inhibitor, full curve, poor fit]

**Q.** And the Potency [2]?
**A.** inactive

**Q.** And the Potency [6]?
**A.** inactive

**Q.** What about the Potency [21] of the same compound?
**A.** inactive

**Q.** And the Potency [22]?
**A.** inactive

**Q.** Which Potency [1] does the source give for `COC1C(O)C(OC(N)=O)C(Oc2ccc3c(O)c(NC(=O)c4ccc(O)c(CC=C(C)C)c4)c(=O)oc3c2C)OC1(C)C` (configuration not stated) here?
**A.** active: 44 µM

**Q.** What about the Potency [17] of the same compound?
**A.** inactive

**Q.** And the Potency [8]?
**A.** inactive

**Q.** And the Potency [23]?
**A.** inactive

**Q.** What about the Potency [24] of the same compound?
**A.** inconclusive [rising, partial curve]

**Q.** What about the Potency [22] of the same compound?
**A.** inconclusive [cytotoxic, full curve, poor fit]

**Q.** And the Potency [25]?
**A.** active: 24.3 µM

**Q.** And the Potency [11]?
**A.** inactive

**Q.** And the Potency [18]?
**A.** active: 27.2 µM
